Reference: publication PMC4336329 (PLoS ONE, 2015)
Among all 310,000 compounds or so, about 2,200 (0.71%) showed an effect of 50% or more. Effects have a minus sign here. This is one part of the list.

Biological target: human ether-à-go-go-related gene (hERG) potassium channel (human, UniProt Q12809)
Experiment: primary screen, population patch clamp on CHO cells stably expressing hERG

Chain of human ether-à-go-go-related gene (hERG) potassium channel (Q12809 whole entry, looked up): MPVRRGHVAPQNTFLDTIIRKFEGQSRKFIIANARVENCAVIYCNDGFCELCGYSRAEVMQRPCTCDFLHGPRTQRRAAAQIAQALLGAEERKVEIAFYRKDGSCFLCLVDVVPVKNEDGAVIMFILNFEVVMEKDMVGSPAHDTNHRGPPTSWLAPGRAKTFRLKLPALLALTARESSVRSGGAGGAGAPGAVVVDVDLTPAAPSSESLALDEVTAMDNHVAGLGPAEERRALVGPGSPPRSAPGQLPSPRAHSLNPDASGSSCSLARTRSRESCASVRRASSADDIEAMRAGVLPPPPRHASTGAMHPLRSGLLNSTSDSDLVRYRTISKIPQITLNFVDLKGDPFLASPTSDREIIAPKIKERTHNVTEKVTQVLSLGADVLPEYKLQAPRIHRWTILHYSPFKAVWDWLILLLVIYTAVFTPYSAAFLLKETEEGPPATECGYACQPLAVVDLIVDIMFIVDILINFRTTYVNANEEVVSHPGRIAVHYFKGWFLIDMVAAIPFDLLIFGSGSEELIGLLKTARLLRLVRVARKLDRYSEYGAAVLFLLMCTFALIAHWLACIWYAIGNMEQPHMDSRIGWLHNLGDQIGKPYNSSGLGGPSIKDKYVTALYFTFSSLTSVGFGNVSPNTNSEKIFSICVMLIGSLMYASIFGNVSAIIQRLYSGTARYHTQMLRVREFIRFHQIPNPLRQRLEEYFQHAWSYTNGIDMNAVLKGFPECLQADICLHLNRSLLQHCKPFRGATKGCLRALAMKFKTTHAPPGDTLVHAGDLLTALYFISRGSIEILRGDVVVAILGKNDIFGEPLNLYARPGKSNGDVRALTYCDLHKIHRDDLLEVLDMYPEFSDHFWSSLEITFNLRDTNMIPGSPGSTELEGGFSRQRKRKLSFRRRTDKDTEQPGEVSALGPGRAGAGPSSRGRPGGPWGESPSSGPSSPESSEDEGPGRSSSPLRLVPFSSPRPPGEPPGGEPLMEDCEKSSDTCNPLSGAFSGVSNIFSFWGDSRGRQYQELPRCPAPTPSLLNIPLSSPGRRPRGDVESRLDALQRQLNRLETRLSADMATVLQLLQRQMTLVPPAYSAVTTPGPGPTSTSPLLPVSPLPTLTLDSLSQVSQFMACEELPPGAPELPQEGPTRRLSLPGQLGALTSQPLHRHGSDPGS

| Structure (SMILES) | hERG current change (%, negative = inhibition) at 1uM |
| --- | --- |
| Oc1cccc2cccnc12 | 9.98% |
| Cc1cc(N2CC(C)OC(C)C2)nc(C(C)C)n1 (stereo not shown) | 5.19% |
| C[C@@H]1CC=C[C@H]2[C@H]1C(=O)N(Cc1ccccc1)[C@H]2c1ccc(F)c(-c2ccc(N(C)C)cc2)c1 | 9.55% |
| CCN(CC)C(=O)c1ccc(NC(=O)CN2CCc3cc(OC)c(OC)cc3C2)cc1 | 11.7% |
| Cc1sc2nc(CSCC(=O)Nc3cc(F)ccc3F)[nH]c(=O)c2c1C | 15.2% |
| COc1ccc(S(=O)(=O)NC(C)C)cc1-n1cnnn1 | 14.6% |
| CCCCN(C(=O)C(C)Oc1ccc(Br)cc1)c1c(N)n(CC(C)C)c(=O)[nH]c1=O (stereo not shown) | -13.5% |
| CC(=O)[C@@]1(O)CC[C@H]2[C@@H]3CCC4=CC(=O)CC[C@]4(C)[C@H]3CC[C@@]21C | 12.5% |
| CC(C)CCN1CCC(Cc2ccccc2)(NC(=O)c2ccccc2)C1=O (stereo not shown) | 6.45% |
| CC1(c2ccccc2)NC(=O)N(CC(=O)NNC(=O)c2ccccc2)C1=O (stereo not shown) | 8.93% |
| O=C(CSc1nnc(-c2cccs2)o1)NCC1CN(Cc2ccccc2)CCO1 (stereo not shown) | 11.7% |
| O=C1C(=O)N(Cc2cccnc2)C(c2cccc(F)c2)/C1=C(/O)c1ccc2c(c1)OCO2 (stereo not shown) | 14.4% |
| O=C(Nc1nc2ccsc2c(=O)s1)c1ccc(F)cc1 | 6.15% |
| CCCOc1ccc(N2C(=O)CC(SCCN)C2=O)cc1.Cl (stereo not shown) | -3.2% |
| Cc1ccn(CC(=O)NC2CC(C)(C)Cc3c2cnn3-c2ccc(F)cc2)n1 (stereo not shown) | 2.83% |
| CC(C)c1ccc(N2C(=O)CC(Sc3nc4ccccc4o3)C2=O)cc1 (stereo not shown) | 5.96% |
| O=c1cc(N2CCN(c3cccc(Cl)c3)CC2)[nH]c(=O)n1C1CCCCC1 | 5.48% |
| O=c1c2ccccc2nc(/C=C/c2ccccn2)n1-c1ccccc1 | 17.5% |
| COc1ccc(C2CC(=O)C3=C(C2)NC(C)=C(C(=O)Nc2ccccc2C)C3c2coc3ccc(C)cc3c2=O)cc1OC (stereo not shown) | 3.64% |
| Cc1csc(SC(C)C(=O)NC2CCCCC2C)n1 (stereo not shown) | 7.18% |
| CC1CC(C)CN(C(=O)COC(=O)c2cc([N+](=O)[O-])ccc2N2CCOCC2)C1 (stereo not shown) | -21.1% |
| COc1ccccc1CC(=O)N1CCCC(CCC(=O)NCc2ccccc2F)C1 (stereo not shown) | 7.54% |

| Structure (SMILES) | hERG current change (%, negative = inhibition) at 1uM |
| --- | --- |
| C(/CCc1ccccc1)=N\n1cnnc1 | 14.2% |
| O=C(NCc1ccccc1)C(c1ccc(O)cc1)N(C(=O)c1cnccn1)c1ccccc1 (stereo not shown) | 10.8% |
| CCOc1ccccc1NC(=O)CN1CCC(C(=O)c2ccc(OC)cc2)CC1 | -26.4% |
| Cc1ccc(OCCC(=O)OCC(=O)NCCc2ccc(Cl)cc2)cc1 | 16.1% |
| COC(=O)C1=C(c2ccc(F)cc2OCc2ccccc2)C[C@@H]2CC[C@H]1N2C(=O)NCCCOC(C)C | 6.05% |
| COc1ccc2[nH]c(=O)c(CN(CC3CCCO3)C(=S)Nc3ccccc3)cc2c1 (stereo not shown) | 15.7% |
| Cc1ccc(OCCN2C(=O)c3ccccc3C2=O)c([N+](=O)[O-])c1 | 7.81% |
| Cc1noc(C)c1CSc1nnnn1-c1ccc(Cl)cc1 | 6.35% |
| Cc1cc(C)c(C#N)c(SCC2COc3ccccc3O2)n1 (stereo not shown) | 20.9% |
| COc1cccc(NC(=O)Cn2nc(Cc3cccnc3)c3ccccc3c2=O)c1 | -8.3% |
| O=C(O)c1ccc(C(=O)Nc2ccc(F)cc2)cc1 | 14.7% |
| Cc1ccccc1Nc1nc(N)nc(CSc2nnnn2C)n1 | 0.716% |
| COc1cc2c(cc1OC)C(C)N(C(=O)CCNC(=O)c1ccccc1)CC2 (stereo not shown) | 14% |
| N#CCC(=O)NC1CCC(CC2CCC(NC(=O)CC#N)CC2)CC1 (stereo not shown) | 10% |
| CC1=CS/C(=C(/C#N)C(=O)NCc2ccco2)N1c1ccccc1 | 8.61% |
| COc1ccc(-c2nnc(SCC(=O)N3CCCCC3)o2)cc1OC | -2.17% |
| CCn1c(SCC(=O)NCc2ccco2)nnc1-c1cccs1 | 1.19% |
| Cc1noc(C)c1C(=O)OCC(=O)NC(=O)NC12CC3CC(CC(C3)C1)C2 | 6.63% |
| CCCCn1c(O)c(C(CC)=NCc2ccc3c(c2)OCO3)c(=O)[nH]c1=O | -14.7% |
| Nc1nc(SCC(=O)N2CCCCC2)[nH]c(=O)c1NC(=O)c1ccccc1F | 11.1% |
| O=c1c2[nH]cnc2n(-c2cccc(Br)c2)c(=O)n1Cc1ccccc1 | 15.9% |
